Experimental data taken from patent publication US4132738A, “Preparation of 15-deoxy-16-hydroxyprostaglandins” (Miles Laboratories, Inc., priority 1978, dated 1979).
The name of at least one read-out is uncertain.

Experiments:
rat stomach = test: Cascade assay, rat stomach fundus in vitro; type: cell-based; settings: 0.0001 to 100,000 ng, max = PGE1 response
Experimental: (§1) The smooth muscle stimulant effects of the test compounds were determined simultaneously in four different tissues that are known to be reactive to naturally occurring prostaglandins. Segments of rat stomach fundus, rat colon, chick rectum and rabbit aortic strip were obtained as described by: Vane, J. R., Brit. J. Pharmacol., 12: 344 (1957); Regoli, D. and Vane, J. R., Brit. J. Pharmacol., 23: 351 (1964); Mann, M. and West, G. B., Brit. J. Pharmacol., 5: 173 (1950); and Furchgott, R. F. and Bhadrakom, R., J. Pharmacol. Exper. Ther., 108: 129 (1953). One end of each preparation was tied to the bottom of a 10 ml tissue chamber and the other to a force displacement transducer (Grass FT-03) for continuous tension recording. The stomach, colon, and rectum segments were stretched to an initial tension of 1 g, while the aortic strip was subjected to 4 g. All preparations were left undisturbed for 1 hour prior to ptesting. The chambers were equipped with an external jacket through which water, maintained at 40° C., was circulated. Preparations were arranged one beneath the other in descending order (aorta, stomach, colon and rectum). Provision was made for bathing the four tissues successively so that they were superfused with the same fluid (Gaddum, J. H., Brit. J. Pharmacol., 6: 321 [1953]). The bathing fluid consisted of: Krebs bicarbonate solution aerated with a mixture of 95% 02 and 5% CO2 and warmed at 37° C.; atropine sulphate (0.1 mcg/ml, phenoxybenzamine hydrochloride (0.1 mcg/ml), propranolol hydrochloride (3.0 mcb/ml), methysergide maleate (0.2 mcb/ml) and brompheniramine maleate (0.1 mcg/ml) were added to eliminate the possibility of smooth muscle responses being due to stimulation of cholinergic, adrenerigic, serotonin of histamine receptors. The fluid was circulated by means of a roller pump and was allowed to drip over the preparations at a rate of 10 ml/minute.
(§2) Test compounds were diluted from stock solutions so as to administer quantities ranging from 0.0001 to 100,000 ng in a volume of 0.5 ml. The compounds were applied by dripping on the uppermost tissue, at intervals of 10 to 20 minutes. Maximal increases in tension after each dose were measured and the results were used to plot dose-response curves. ED50 data (doses necessary to produce a response 50% of maximum) were then calculated graphically for each tissue. Maximum responses utilized were those elicited by PGE1 in gastric and rectal tissue, by PGF2α in colonic tissue, and by PGA2 in aortic tissue.
(§3) Activity in each tissue was scored according to the following scale: […]

rat colon = test: Cascade assay, rat colon in vitro; type: cell-based; settings: 0.0001 to 100,000 ng, max = PGF2α response
Experimental: as §1, §2, §3

chick rectum = test: Cascade assay, chick rectum in vitro; type: cell-based; settings: 0.0001 to 100,000 ng, max = PGE1 response
rabbit aorta = test: Cascade assay, rabbit aorta in vitro; type: cell-based; settings: rabbit aortic strip in vitro; 0.0001 to 100,000 ng; max = PGA2 response
rat uterus = test: Effects on the rat uterus in vitro; type: cell-based; settings: 0.001 to 10 mcg/ml, ED50 relative to carbachol response
[1] = tested on: gastric secretion in the rat; test: Effects on gastric secretion in the rat; type: in vivo; settings: pylorus ligated, s.c. 1.5 mg/kg twice, total 3.0 mg/kg, 4 hours
Experimental: A procedure based on that described by Lipman, W. (J. Pharm. Pharmacol., 21: 335 [1968]) was used to assess the influence of test compounds on gastric secretion. Rats of one sex weighing 150 to 200 g were randomly divided into groups of six animals each and fasted for 48 hours previous to the experiments, water being available ad libitum. The animals were anesthetized with ether, the abdomen opened through a midline incision, and the pylorus ligated. Test compounds were diluted from stock solution so as to administer a dose of 1.5 mg/kg in a volume equivalent to 1 ml/kg. Subcutaneous injections were applied immediately after surgery and again 2 hours later, so that a total dose of 3.0 mg/kg was administered. Dilutions were made with phosphate buffer (pH 7.38) as recommended by Lee et al. (Prostaglandins, 3: 29 [1973]) in order to insure adequate stability of drugs at the subcutaneous depot. Each compound was tested in one group of rats; an additional control group received only the vehicle.
Four hours after pyllric ligation the animals were killed with ether, the cardias ligated, and the stomachs removed. The volume of gastric secretion was measured and the contents centrifuged at 5000 rpm for 10 minutes. Total acid in the supernatant was titrated against a 0.1 N sodium hydroxide solution and the amount expressed in mEq.
Volume and total acid values of the treated group were compared with those of the controls […]. Antisecretory activity was scored according to the following scale: […]

[2] = tested on: blood pressure and heart rate in the anesthetized cat; test: Effects on blood pressure and heart rate in the anesthetized cat; type: in vivo; settings: i.v. 0.01 to 10.0 mcg/kg, scored on hypotension only
Experimental: The acute effects of test compounds on blood pressure and heart rate were determined in cats of either sex anesthetized with a mixture of pentobarbital sodium (35 mg/kg, i.v.) and barbital sodium (100 mg/kg, i.v.). Cannulas were placed in the trachea to allow adequate spontaneous ventilation, in a femoral artery for blood pressure recording with a strain gage transducer, and in a saphenous vein for drug administration.
Heart rate was recorded by means of a cardiotachometer driven by the R wave of the electrocardiogram. After a period of 10 minutes of stable recordings of blood pressure and heart rate, the test compound was administered intravenously at doses increasing from 0.01 to 10.0 mcg/kg, spaced one log and injected at 10 minute intervals. All doses were injected in a volume of 0.1 ml/kg. Modifications of blood pressure and heart rate induced by the test compound were expressed both in absolute units (mmHg and beats/minute) and as percent of values recorded immediately before administration of each dose. Biphasic responses were tabulated in the order in which they occurred. The direction of the observed changes is also noted (+ for increases, and - for decreases).
Activity of compounds in this test was judged only on the basis of the degree of hypotension observed. Thus, the ED50 mmHg (dose decreasing blood pressure by 50 mmHg) was calculated graphically, and the compound scored according to the following scale: […]

Row | SMILES | Cascade, Stomache: activity value (ED50) (rat stomach) | Cascade, Colon: activity value (ED50) (rat colon) | Cascade, Rectum: activity value (ED50) (chick rectum) | Cascade, Aorta: activity value (ED50) (rabbit aorta) | Rat Uterus: activity value (ED50) (rat uterus) | Gastric Secretion: activity value (% decrease in acidity) [1] | Feline Blood Pressure Heart Rate: activity value (ED50 mmHg) [2]
1 | O=C1C[C@@H](O)[C@H](/C=C/CC2(O)CC3C=CCC32)[C@H]1CCCCCCCO (stereo partly drawn) [TR 4803, 16, 18-methano-17, 20-methano-1, 11α, 16RS-trihydroxyprosta-13E, 19-dien-9-one] | 0 (ED50, ng >10000) | 0 (ED50, ng >10000) | 0 (ED50, ng >10000) | 0 (ED50, ng >10000) | 0 (ED50 (mcg/ml) >10) | 1 (% decrease in acidity 26-50, not significant) | –
2 | CC1CCCC(O)(C/C=C/[C@H]2[C@H](O)CC(=O)[C@@H]2CCCCCCCO)C1 (stereo partly drawn) [TR 4851, 16, 20-Methano-18RS-methyl-1, 11α, 16RS-trihydroxyprost-13E-en-9-one] | 0 (ED50, ng >10000) | 0 (ED50, ng >10000) | 1 (ED50, ng 1001 - 10000) | 0 (ED50, ng >10000) | 0 (ED50 (mcg/ml) >10) | 0 (% decrease in acidity <26) | 0 (ED50 mmHg, mcg/kg >10.0)
3 | COC(=O)CCCCCC[C@H]1C(=O)C=C[C@@H]1/C=C/CC1(O)CC2CCCC21 (some centres unmarked) [TR 4801, Methyl 16RS-hydroxy-16, 18-methano-17, 20-methano-9-oxoprosta-10, 13-E-dien-1-oate] | 0 (ED50, ng >10000) | 0 (ED50, ng >10000) | 0 (ED50, ng >10000) | 0 (ED50, ng >10000) | 0 (ED50 (mcg/ml) >10) | 0 (% decrease in acidity <26) | –
4 | COC(=O)CCCCCC[C@H]1C(=O)C[C@@H](O)[C@@H]1/C=C/CC1(O)CC2CCC1C2 (stereo partly drawn) [TR 4883, Methyl 11α,16RS-dihydroxy-16,20-methano-17,20-methano-9-oxoprost-13E-en-1-oate] | 0 (ED50, ng >10000) | 0 (ED50, ng >10000) | 0 (ED50, ng >10000) | 0 (ED50, ng >10000) | 0 (ED50 (mcg/ml) >10) | 3 (% decrease in acidity 51-75) | 1 (ED50 mmHg, mcg/kg 1.01 - 10.0)
5 | O=C1C=C[C@H](/C=C/CC2(O)CC3CCCC32)[C@H]1CCCCCCCO (some centres unmarked) [TR 4805, 16, 18-methano-17, 20-methano-1, 16RS-trihydroxyprosta-10, 13E-diene-9-one] | 0 (ED50, ng >10000) | 0 (ED50, ng >10000) | 0 (ED50, ng >10000) | 0 (ED50, ng >10000) | 0 (ED50 (mcg/ml) >10) | 0 (% decrease in acidity <26) | –
6 | COC(=O)CCCCCC[C@H]1C(=O)C[C@@H](O)[C@@H]1/C=C/CC1(O)CC2CCCC21 (stereo partly drawn) [TR 4809, Methyl 11α, 16RS-dihydroxy-16, 18-methano-17, 20-methano-9-oxoprost-13E-en-1-oate] | 0 (ED50, ng >10000) | 0 (ED50, ng >10000) | 0 (ED50, ng >10000) | 0 (ED50, ng >10000) | 0 (ED50 (mcg/ml) >10) | 3 (% decrease in acidity 51-75) | –
7 | O=C1C[C@@H](O)[C@H](/C=C/[C@@H]2CCCC[C@H]2O)[C@H]1CCCCCCCO [TR 4840, 15,20-Cyclo-1,11α,16R-trihydroxy-prost-13E-en-9-one] | 0 (ED50, ng >10000) | 0 (ED50, ng >10000) | 0 (ED50, ng >10000) | 0 (ED50, ng >10000) | 0 (ED50 (mcg/ml) >10) | 0 (% decrease in acidity <26) | –
8 | O=C1C[C@@H](O)[C@H](/C=C/[C@H]2CCCC[C@@H]2O)[C@H]1CCCCCCCO [TR 4848, 15,20-Cyclo-1,11α,16S-trihydroxy-prost-13E-en-9-one] | 0 (ED50, ng >10000) | 0 (ED50, ng >10000) | 0 (ED50, ng >10000) | 0 (ED50, ng >10000) | 0 (ED50 (mcg/ml) >10) | 0 (% decrease in acidity <26) | –
9 | O=C1C[C@@H](O)[C@H](/C=C/CC2(O)CC3CCC2C3)[C@H]1CCCCCCCO (stereo partly drawn) [TR 4903, 16,20-Methano-17,20-methano-1,11α,16RS-trihydroxyprost-13E-en-9-one] | 0 (ED50, ng >10000) | 0 (ED50, ng >10000) | 0 (ED50, ng >10000) | 0 (ED50, ng >10000) | 0 (ED50 (mcg/ml) >10) | 2 (% decrease in acidity 26-50, significant) | –
10 | COC(=O)CCCCCC[C@H]1C(=O)C=C[C@@H]1/C=C/CC1(O)CC2C=CCC21 (some centres unmarked) [TR 4802, Methyl 16RS-hydroxy-16, 18-methano-17, 20-methano-9-oxoprosta-10, 13E, 19-trien-1-oate] | 0 (ED50, ng >10000) | 0 (ED50, ng >10000) | 0 (ED50, ng >10000) | 0 (ED50, ng >10000) | 0 (ED50 (mcg/ml) >10) | 0 (% decrease in acidity <26) | –
11 | COC(=O)CCCCCC[C@H]1C(=O)C[C@@H](O)[C@@H]1/C=C/[C@@H]1CCCC[C@H]1O [TR 4768, Methyl 15S, 20-cyclo-11α, 16-trans-dihydro-9-oxoprost-13E-en-1-oate] | 1 (ED50, ng 1001 - 10000) | 0 (ED50, ng >10000) | 1 (ED50, ng 1001 - 10000) | 0 (ED50, ng >10000) | 0 (ED50 (mcg/ml) >10) | 0 (% decrease in acidity <26) | –
